Measured values from the supplement of paper PMC3334620.
The full ranking holds about 33,000 sequences; the median of “E-score (-0.5 to 0.5)” is about -0.01, and the highest 2% start at about 0.26. The list shows a part of the results.

The sequences below were run against Ste12 (UniProt P13574) (assay: PBM E-score (8-mer binding enrichment) (E-score (-0.5 to 0.5)); higher = stronger / more preferred TF binding; most listed sequences are background and not binding sites). Conditions: protein concentration: 200 nM; construct: GST-DNA-binding domain.
Summary of the method: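 PURExpress in vitro transcription/translation supplied GST-tagged yeast transcription factors, either full-length or DNA-binding domain. Applied at about 100-200 nM to universal all-10-mer Agilent arrays double-stranded by primer extension, the bound protein was detected with fluorescent anti-GST. E-scores, modified Wilcoxon-Mann-Whitney statistics, were given by the Universal PBM Analysis Suite to ungapped eight-base words pooled with their reverse complements after masliner normalisation.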

Sequence | PBM E-score
CAGGTGTA | 0.0993
GCGCGGAA | 0.224
GCTGCGTA | -0.155
CATCATAG | 0.11
CCTACCAC | -0.145
ATAGCGGG | 0.0949
CAGTCGCG | -0.0193
GGACACAA | 0.146
ATCTTGCG | 0.0576
CACGTTTC | 0.285
ATCACTGG | 0.00928
ATGCTCAA | -0.0833
GGATGTCA | 0.244
CTCTGCTA | -0.281
CCGTGAGA | -0.221
ACGCAGTA | -0.142
AGCTTGTA | -0.025
GCCCTACA | -0.214
ACTTAGAC | -0.0823
ATAAAGAT | 0.182
GGAGAGAC | 0.0275
TATAGTGA | -0.0854

Sequence | PBM E-score
TCGTAGCA | 0.0284
GTGTTAAC | 0.0667
CGCCCACC | 0.139
ACTTAAAT | 0.138
ACTGTAAG | -0.0769
TCTAGCAA | 0.0544
CGTCCTTC | 0.0288
CGTATAGA | -0.0523
AGAAAGGC | -0.155
GCATCTAA | 0.13
CACGGAAC | 0.127
ACTTAGTC | -0.0559
ATTCCGAA | 0.109
CCCTATCG | -0.24
ATGGGAAC | -0.0809
AAAAATAG | 0.24
AATGGTAC | -0.039
GGTGCTGA | -0.0709
AGCCGTCC | -0.0621
ACATCCAC | -0.00521
AAAGTACA | 0.209
GAGTGTTA | -0.0961

Sequence | PBM E-score
ACTTTGAT | 0.11
AGTAAGCA | -0.0954
CAACCTTC | -0.115
GCTTTTCC | -0.0357
TCTCGCAA | 0.00805
GAGCATCA | -0.156
TCTGATCA | -0.0592
GAGGGCTA | -0.223
AGCTCCTA | -0.238
CTATGCGC | -0.00749
GTCGTAGA | -0.121
AGCCCCCT | -0.266
CTTGTAGC | -0.0229
ACGCGGAC | -0.148
GCTGGTAC | -0.178
CCACGCCA | -0.018
CGGCGCGA | 0.189
AGCCCACT | -0.0644
ACCCGATA | 0.13
CATCCAGA | -0.00655
CCACACAA | 0.0302
CGTGGTGA | -0.226

Sequence | PBM E-score
ACTAGCAA | -0.0295
CGACGCGA | -0.0351
GGCATCCC | -0.173
GGCTCAGA | -0.0837
ACCGGATG | -0.166
AGGATGAT | 0.104
GGCACTAA | -0.101
CCGGGTCG | -0.0265
CGGCAAGA | -0.0842
ACGGTGCT | -0.0587
CACCATCA | 0.0196
AAGCTGGA | -0.0676
AACTGGTG | -0.125
GTTTCTCA | 0.0531
TAGAGGCA | -0.152
CAAGCCCA | -0.157
CAATCGAA | -0.021
GATATAGC | 0.0358
AAGTCCGA | -0.0579
AGATACGG | 0.11
